In all, about 13,000 compounds were measured (“IFI”: median about 4, highest 2% from about 17 on). The list shows a part of the results.

The assay in a line: GSK_TCMDC: Inhibition Frequency Index (IFI). The number of non-kinase HTS assays where a compound showed > 50 % inhibition, expressed as a percentage of the number of such assays in which the compound was tested (-0 is zero). The format is functional.
`OC1(c2ccccc2)c2cc(Cl)ccc2OC1c1nc2c(Cl)ccc(Cl)c2o1` (stereo unspecified): the IFI was 1.48%. Then `CCN1CCN(Cc2ccc(-c3ccc(NS(=O)(=O)c4cccc5cccnc45)cc3)cc2)CC1`, with 7.44%; and `O=C(Nc1cccc(CN2CCCN(Cc3ccc(O)cc3)CC2)c1)c1ccc(Cl)c(Cl)c1`, with 5.96%. Under `O=C(/C=C/c1ccc(Cl)c(Cl)c1)NCCCN1CCC(c2c[nH]c3ccccc23)CC1` stands 7.64%; under `Cc1cc(CNCCCCCCNCc2cccc([N+](=O)[O-])c2)ccc1O`, 0.75%. Then `Cc1cc(=O)c(C2CCC(c3ccc(Cl)cc3)CC2)c(C)[nH]1` (stereo unspecified), with -0%; and `Cc1ccccc1C1CCN(C2CCC(NC(=O)/C=C/c3ccc(F)c(F)c3)CC2)CC1` (stereo unspecified), with -0%; and `Cc1cccc2nc(-c3cccc(-c4ccc(CNCCNC(=O)c5ccnn5C)cc4)c3)[nH]c12`, with 5%. `COc1c(O)cc2oc(-c3ccc(O)cc3)cc(=O)c2c1O` registered an IFI of 1.49%. Under `O=C(c1cccc(-c2cccc(-c3nc4cc(F)ccc4[nH]3)c2)c1)N1CCCCC1CN1CCC(O)C1` (stereo unspecified) stands 4.42%; under `O=C(Nc1cncc(NC(=O)c2ccc(Cl)c(Cl)c2)c1)c1ccc(Cl)c(Cl)c1`, 1.44%; under `O=C(C=Cc1ccc(Cl)c(Cl)c1)NCCCCCN1CCCC(CCCNS(=O)(=O)c2ccc(Br)cc2)C1` (stereo unspecified), 10.1%.

`CCCCCCCCNCc1c(O)ccc2ccccc12`: the IFI is 7.69%.

For the compound `Cc1cc(-c2ccc(NC(=O)Nc3ccc4nccc(N5CCN(C)CC5)c4c3)cc2C)cc(C)n1`, the IFI was determined as 2.21%. For `O=C1Nc2ccc3ncccc3c2/C1=C/Nc1ccc(N2CCN(CCO)CC2)cc1`, the IFI worked out at 12.7%. Under `CCCCCn1c(Sc2ccc(C#N)c([N+](=O)[O-])c2)nnc1-c1cccs1` stands 4.2%; under `Cc1cc(SC(C)(C)C)cc2c(Cl)c(C(N)=O)cnc12`, 32.5%; under `O=C(NCCCCN1CCN(c2cccc3c2OCCO3)CC1)c1ccc(NC(=O)c2cc(Cl)cc(Cl)c2)cc1`, 5.31%.

The compound `CCCCC1(c2ccc(F)cc2)NC(=O)N(CC(=O)c2cc(C)n(Cc3ccco3)c2C)C1=O` (stereo unspecified) came in with an IFI of 16.2%. Then `COc1ccc2nccc([C@@H](O)CN3CCC(NCc4ccc5scnc5c4)CC3)c2c1`, with 0.74%; and `Clc1ccc(CNc2ccnc(NCc3cccnc3N3CCCC3)n2)c(Cl)c1`, with 16.7%. Under `CC(C)(CNCc1cccc(Oc2ccccc2)c1)c1nc(-c2ccnc(N)n2)c(-c2ccc(Cl)c(O)c2)[nH]1` stands 10.5%.

Regarding `COc1ccc(C(=O)N2CCC(CN3CCOC(c4ccccc4)(c4ccccc4)C3)CC2)cc1`, the IFI was found to be 3.85%. For `N=C1N=C(N)NC2(CCCCC2)N1OCC1CCCCC1`, the IFI amounted to 4.41%. `CCOc1ccc(-c2nonc2NC(=O)c2ccc(Cl)cc2)cc1OCC` registered an IFI of -0%.

`Cc1cc(-c2ccc(NC(=O)N3CCc4cc(Cl)c(N5CCN(C)CC5)cc43)cc2)ccc1C#N` returned an IFI of 11.4%.
